Measurements from publication PMC6503469, “The Use of Molecular Descriptors To Model Pharmaceutical Uptake by a Fish Primary Gill Cell Culture Epithelium” (Environmental Science & Technology, 2018).

Tested on: fish primary gill cell culture epithelium (FIGCS)
Details: Table S3; 1 μg mL^–1 in apical freshwater, 24 h

Row | Compound | Rate [nmoles cm-2 hour-1]
1 | CC(C)Cc1ccc(C(C)C(=O)O)cc1 (centres unmarked) [ibuprofen, ibuprofen sodium salt] | 0.07183

Same assay, conditions: rainbow trout (Oncorhynchus mykiss), 24 h, 1 μg mL^–1, pH 7.6

Row | Compound | Rate [nmoles cm-2 hour-1] | uptake rate [nmol cm^–2 h^–1]
2 | O=C(O)Cc1ccccc1Nc1c(Cl)cccc1Cl [diclofenac, diclofenac sodium salt] | 0.02677 | 0.027 ± 0.003
3 | CC(C)Cc1ccc(C(C)C(=O)O)cc1 (centres unmarked) [ibuprofen, ibuprofen sodium salt] | – | 0.072 ± 0.013
4 | CC(C)NCC(O)COc1cccc2ccccc12 (centres unmarked) [propranolol, propranolol hydrochloride] | 0.09507 | 0.095 ± 0.026
5 | NC(=O)N1c2ccccc2C=Cc2ccccc21 [carbamazepine] | 0.02158 | 0.022 ± 0.004
6 | C#C[C@]1(O)CC[C@H]2[C@@H]3CCC4=CC(=O)CC[C@@H]4[C@H]3CC[C@@]21C [norethindrone, norethindrone-19] | 0.0244 | 0.024 ± 0.003
7 | Cc1ccc(C)c(OCCCC(C)(C)C(=O)O)c1 [gemfibrozil] | 0.07986 | 0.075 ± 0.007
8 | CC(=O)Nc1nnc(S(N)(=O)=O)s1 [acetazolamide] | 0.125 | 0.125 ± 0.032

Counter-ions that a name gives are not always drawn.
